Structures are written as SMILES. Screen size: about 43,000 compounds; about 200 (0.47%) were called active. Not shown: some 12% with an inconclusive outcome. Calls follow the shape of the dose curve; as a rule, active = well fitted cell-killing curve with a large enough effect; inconclusive = small, poorly fitted or top-dose-only effect, or effect the other way; inactive = flat fitted curve, though single readings scatter. The list shows a part of the results.
% is scaled to controls: 0 for no effect and ±100 for the full control effect.

This test in a line: Cell viability qHTS assay in S16 Pmp22-F2sN cells. Also: nearly all actives have a fitted effect of over 65% in size. To be noted: S16 Pmp22-F2sN Schwann cells (luciferase reporters placed in the Pmp22 gene) viability, CellTiter-Glo, 24 h; series mostly up to 57.5 µM; activity change, negative = cytotoxicity: at the top concentration. An outline of the steps: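 Seed 500-1,000 S16 Pmp22-F2sN cells per well in phenol-red-free DMEM with 10% heat-inactivated FBS; pin-add 23 nL compound; incubate 24 h at 37C; add CellTiter-Glo, wait 15 min protected from light; read luminescence.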
For orientation: Quantitative high-throughput screening tests each substance at several concentrations.
For the compound `COc1ccc(CNC(=O)C(=O)Nc2c3c(nn2-c2ccccc2)CSC3)cc1`, the “activity change, negative = cytotoxicity” value was inactive: -7.26%. `N#Cc1ccc(S(=O)(=O)N2CCC(Oc3cccc(C(F)(F)F)c3)CC2)cc1`: the “activity change, negative = cytotoxicity” value is inactive: 11.8%. With `O=C(NCc1cccs1)c1nn(-c2ccccc2Cl)nc1CO`, the “activity change, negative = cytotoxicity” value is inactive: 0.723%. For the compound `COCCCNc1nc2c(S(=O)(=O)c3ccccc3)nnn2c2ccc(Cl)cc12`, the “activity change, negative = cytotoxicity” value was inactive: -17.5%. For `CC1=C(C(=O)Nc2ccccc2)C(c2ccccc2C)n2nc(SCC(=O)c3ccc(C)cc3)nc2N1` (configuration not stated), the “activity change, negative = cytotoxicity” value was inactive: -1.53%. Next, `Cc1[nH]n(-c2ccccc2)c(=O)c1C(c1cc(Cl)ccc1O)c1c(C)[nH]n(-c2ccccc2)c1=O`: inactive: -1.19%; `CCN(c1cccc(C)c1)S(=O)(=O)c1ccc(-n2cccn2)cc1`: inactive: 0.518%; `CCc1ccc(NC(=O)CCS(=O)(=O)c2cc3c(cc2Cl)NC(=O)CO3)cc1`: inactive: 7.07%. Next, `O=C(NCCc1csc(-c2ccc(C(F)(F)F)cc2)n1)c1ccc(F)c(F)c1`: inactive: 4.75%; `CCOc1ccc(-c2cc(CCCC(=O)NCCc3ccc(Cl)cc3)no2)cc1`: inactive: 8.1%; `COC(=O)c1c(-c2cccs2)csc1NC(=O)c1ccc(Br)cc1`: inactive: 1.48%. Next, `COC(=O)c1c(-c2cccs2)csc1NC(=O)c1cccc(Cl)c1`: inactive: -1.32%. Consider `Cc1cccc(NC(=O)CSc2nc(-c3cccs3)cc(C(F)(F)F)c2C#N)c1C`, for which the “activity change, negative = cytotoxicity” value is inactive: -1.5%. Next, `CCn1c(CN2CCOCC2)nc2cc(NC(=O)c3ccccc3[N+](=O)[O-])ccc21`: inactive: 2.85%; `CC(C)Oc1ccc(CNC(=O)c2ccc(CS(=O)c3cccc(Cl)c3)o2)cc1` (configuration not stated): inactive: -28.9%; `COc1ccccc1N1CCN(C(=O)Cn2ncc3ccsc3c2=O)CC1`: inactive: 1.71%. In the case of `COc1cccc(-n2cc(C(=O)Nc3cccc(C(F)(F)F)c3)c3ccccc3c2=O)c1` it was inactive: 3.44%. Next, `Cc1ccc(NC(=O)N2CCc3cc(S(=O)(=O)N4CCC(C)CC4)ccc32)cc1`: inactive: 3.73%; `CCN(C(=O)Cn1c(=O)n(CCCS(=O)(=O)C2CCCCC2)c(=O)c2ccccc21)c1cccc(C)c1`: inactive: -5.54%. With `CN(C)C1(CNC(=O)COc2ccc([N+](=O)[O-])cc2)CCCCC1`, the “activity change, negative = cytotoxicity” value is inactive: -5.11%. In the case of `CCC1CN(C(=O)N2CCC(C(=O)NCCc3cc(OC)ccc3OC)CC2)c2ccccc2O1` (configuration not stated) it was inactive: -0.879%. Consider `Cc1ccc(Cl)cc1Nc1nn2c(=O)c3ccc(C(=O)Nc4ccc(F)cc4)cc3nc2s1`, for which the “activity change, negative = cytotoxicity” value was inactive: 2.09%. Turning to `Cc1cc(Cl)ccc1NC(=O)Cn1nc(C)c2c(C)n(-c3ccccc3)nc2c1=O`, the “activity change, negative = cytotoxicity” value was inactive: -2.32%. In the case of `CC1CCN(C(=O)Cn2c(=O)n(CCCCCC(=O)NCc3ccccc3Cl)c(=O)c3sccc32)CC1` it was inactive: -7.89%. In the case of `CC(=O)Nc1cc(-c2nc3cc(Cl)ccc3o2)ccc1C` it was inactive: 4.78%.

Turning to `COc1ccccc1CNC(=O)CCC1N=C2c3ccccc3N=C(SCC(=O)Nc3ccc(F)cc3)N2C1=O` (configuration not stated), the “activity change, negative = cytotoxicity” value is inactive: -13.1%. Turning to `Cc1ccc2c(c1)c1c(c(=O)n(-c3cccc(Cl)c3)c(=O)n1CC(=O)NCCC1=CCCCC1)n2C`, the “activity change, negative = cytotoxicity” value is inactive: 12.3%. In the case of `COc1ccc(CNc2nc(-c3ccccc3)nn2S(=O)(=O)c2ccccc2)cc1` it was inactive: 9.11%; in that of `COc1cccc(C2c3c(oc4cc(C)cc(C)c4c3=O)C(=O)N2CCc2ccc(OC)c(OC)c2)c1` (configuration not stated), inactive: 1.08%. Next, `CCOC(=O)C1CCC(CN(Cc2ccc(OC)cc2)S(=O)(=O)c2ccc(F)c(C(=O)Nc3ccc(C)c(C)c3)c2)CC1` (configuration not stated): inactive: -3.29%. Next, `CCc1ccc(NS(=O)(=O)c2ccc3oc(=O)c4ncn(CC)c4c3c2)cc1`: inactive: -16.2%. Turning to `COc1ccc(-n2c(Cc3ccccc3)nnc2SCc2nc(-c3cccs3)no2)cc1`, the “activity change, negative = cytotoxicity” value is inactive: -13.1%. Consider `O=c1cc(CSc2ncn[nH]2)[nH]c2ccc(F)cc12`, for which the “activity change, negative = cytotoxicity” value is inactive: 0.415%.

For `O=C(Nc1nnc(-c2cc(Cl)ccc2Cl)o1)c1ccc2c(c1)OCCO2`, the “activity change, negative = cytotoxicity” value was inactive: 5.6%. Next, `Cc1cc(=O)n(Cc2c(F)cccc2Cl)c2c1c(C)nn2-c1cccc(F)c1`: inactive: -18.4%; `O=C(Cc1ccc(Cl)cc1)NCC(c1cccs1)S(=O)(=O)c1ccccc1` (configuration not stated): inactive: -5.77%. Next, `CCCSc1ncc(Cl)c(C(=O)Nc2sc(C(C)=O)c(C)c2C(=O)OCC)n1`: inactive: 21.1%; `Cc1ccc(S(=O)(=O)N(CC(=O)Nc2ccc(F)cc2F)Cc2ccc(F)cc2)cc1`: inactive: 2.02%. Next, `CCn1ccc2c(OCC(=O)Nc3ccc(C)c(Cl)c3)cccc2c1=O`: inactive: -24.7%. `COc1cccc(N2CCN(C(=O)CCSCc3ccccc3F)CC2)c1`: the “activity change, negative = cytotoxicity” value was inactive: 6.53%. `Cc1cccc(C(=O)Nc2c(C(=O)N3CCN(c4ccc(F)cc4)CC3)oc3ccccc23)c1`: the “activity change, negative = cytotoxicity” value is inactive: 3.59%. As to `CCOC(=O)C1CCN(S(=O)(=O)c2cc3c4c(c2)C(C)C(=O)N4CCC3)CC1` (configuration not stated), the “activity change, negative = cytotoxicity” value is inactive: 8.81%. As for `Cc1c(CNC(C)CCc2ccccc2)c(C(=O)O)c(C)n1Cc1ccc(F)cc1` (configuration not stated), the “activity change, negative = cytotoxicity” value is inactive: -0.403%. In the case of `Cc1onc(-c2ccccc2Cl)c1C(=O)Oc1ccccc1F` it was inactive: 4.83%.

As to `CC(C)(C)OC(=O)N1CCC(N2CCN(Cc3ccccc3)C(=O)C2=O)CC1`, the “activity change, negative = cytotoxicity” value is inactive: 19.4%. Next, `CCOC(=O)c1ccccc1NC(=O)NCc1c(-n2cccc2)sc2c1CCCC2`: inactive: 2.74%; `CCOc1ccc(NC(=O)C(CC(C)C)N2Cc3ccccc3C2=O)cc1` (configuration not stated): inactive: -3.77%.
